Measured values taken from PMC9440282 (iScience, 2022).

Target: ASH2L (Absent, Small, or Homeotic 2-Like), full length, tag-free (human (by the printed accession), UniProt Q9UBL3-3 1-534)
Experiment: cross-linking; preassembled, SEC-purified M1WRAD complex (MLL1-WDR5-RBBP5-ASH2L-DPY30) at 0.6 mg/ml, 2 mM DSS, 25 mM HEPES pH 7.4, 150 mM NaCl, 1 mM DTT, 25°C 30 min; trypsin, LC-MS/MS, pLink2
Conditions: both partners purified

B1: MLL1 […] (WIN motif and SET domain) (domain or fragment)
chain: not shown
notes: MLL1, […], […] (WIN motif and SET domain); also called M1; source: E. coli Transetta (DE3), purified (glutathione Sepharose 4B, on-column 3C protease digestion, SEC); not shown: GST, N-terminal, cleaved
binding result: binds
